# Data reported in PubChem BioAssay AID1963576 (National Center for Advancing Translational Sciences (NCATS), 2024).
# About 60 (0.1%) of roughly 46,000 compounds were called active. Not shown: some 3% with an inconclusive outcome. The call rests on the fitted dose curve; in most records, active means well fitted inhibition curve with a large enough effect; inconclusive means small, poorly fitted or top-dose-only effect; inactive means no such curve, though single readings can be large or run the other way. This is one part of the list.
# Experiment: Primary qHTS assay for Inhibitors of ovarian cancer metastasis using an organotypic tumor microenvironment (TME) model. Further: nearly all actives have a fitted effect of over 65% in size.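 On activity change, negative = inhibition: plate controls were DMSO wells for no effect and tomatine positive control wells for full effect.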
# Conditions: SKOV3ip1-GFP adhesion/invasion on 3D omental model, fluorescence; series mostly up to 45.8 µM; activity change, negative = inhibition: at the top concentration
# Method in brief: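 qHTS, 4-pt dose (0.36-46 umol/L); SKOV3ip1-GFP, 1,200 cells/well, no FBS; primary omental fibroblast/mesothelial co-culture 48 h pre-grown; 2 h RT + 16 h 37 C; PBS wash, 4% PFA; GFP count 488/509 nm.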
Compound,outcome,"activity change, negative = inhibition"
CCOc1ccc(-c2nonc2NC(=O)c2oc3ccc(CC)cc3c2C)cc1,inactive,–
CCN(C(=O)C1CCN(S(=O)(=O)c2c(C)noc2/C=C/c2ccc(C)cc2)CC1)c1cccc(C)c1,–,inactive: -9.65%
CN1CCN(CCNC(=O)c2cnn(-c3ccc(Cl)cc3)c2C2CCN(C(=O)OC(C)(C)C)CC2)CC1,–,inactive: 1.47%
COc1ccc(Cl)cc1NC(=O)c1cnc2sc(N3CCOCC3)nn2c1=O,–,inactive: -8.93%
Cc1ccc(CNC(=O)c2cnc3c(-c4ccc(F)cc4)c(C)nn3c2C)o1,inactive,–
Cc1ccc2oc(-c3ccc(Cl)c(NC(=O)c4cc5ccccc5o4)c3)nc2c1,–,inactive: 17.4%
COc1ccc(CCNC(=O)C(C)n2nc(C)c3sc4ccccc4c3c2=O)c(OC)c1 (stereo not drawn),inactive,–
Cc1ccc(S(=O)(=O)Nc2ccc3nc(-c4cccc(Cl)c4)oc3c2)cc1,–,inactive: 2.39%
CC(C)c1onc(-c2c(Cl)cccc2Cl)c1COc1ccc(C=Cc2cccc(C(=O)O)c2)c(Cl)c1,–,inactive: 25.7%
O=C(CCCCCn1c(=O)c2sccc2n(Cc2ccccc2Cl)c1=O)NCc1ccc2c(c1)OCO2,–,inactive: -4.75%
COc1ccc(NC(=O)CSc2nc3ccccc3c(=O)n2CCC(=O)NC2CCCCC2)c(OC)c1,–,inactive: -19%
CCC(=O)N1CCc2cc(S(=O)(=O)NC(Cc3ccccc3)C(=O)O)ccc21 (stereo not drawn),inactive,–
COc1cc(NC(=O)C2Cc3ccccc3N2C(=O)c2ccccc2)cc(OC)c1 (stereo not drawn),–,inactive: -0.743%
Cc1cccc(C(=O)NNc2ncnc3c2cnn3-c2ccc(C)c(Cl)c2)c1,–,inactive: 1.64%
CC(CNC(=O)CCCn1c(=O)c2cccn2c2ccc(F)cc21)c1ccccc1 (stereo not drawn),–,inactive: -0.0794%
Cc1ccc(-c2nc(CS(=O)CC(=O)NCCc3ccc(Cl)cc3)c(C)o2)cc1 (stereo not drawn),–,inactive: -5.11%
COc1ccc(N2CCN(c3ncnc4c3nnn4C)CC2)cc1,–,inactive: 5.19%
COc1ccc(OCCn2nnc3sc4c(c3c2=O)CCCC4)cc1,–,inactive: -1.49%
CCOc1ccc(-n2nc(CO)c(C(=O)NCC(C)O)n2)cc1 (stereo not drawn),inactive,–
Clc1ccccc1CSc1nc(NCCc2ccccc2)c2ccccc2n1,inactive,–
CCOc1ccccc1Oc1nc(C)nc2c1oc1ccccc12,–,inactive: -14.8%
N#Cc1c(C(F)(F)F)cc(-c2cccs2)nc1SCc1ccccc1F,–,inactive: 3.7%
Cc1ccc(NC(=O)Cn2c(=O)n(CCCCC(=O)NCc3ccc4c(c3)OCO4)c(=O)c3ccccc32)cc1,–,inactive: 14.8%
CCC(=O)N1c2ccccc2CC1C(=O)N1CCN(c2ccccc2F)CC1 (stereo not drawn),–,inactive: 7.46%

Compound,outcome,"activity change, negative = inhibition"
CCOC(=O)C1CCN(c2ncnc3c2c(-c2ccccc2)cn3-c2ccc(Cl)cc2)CC1,inactive,–
CCOc1ccccc1CNS(=O)(=O)c1cc(-c2onc(C)c2C)ccc1OC,–,inactive: -1.81%
COc1cnc(NS(=O)(=O)c2ccc(N)cc2)nc1,–,inactive: 2.75%
CCOC(=O)c1c(C)[nH]c(C)c1S(=O)(=O)NCC(=O)NCc1ccccc1C,–,inactive: 1.97%
CCOc1ccc(NC(=O)CCc2nnc3n(C)c(=O)c4sccc4n23)cc1,inactive,–
CCN(Cc1ccccc1)C(=O)Cn1ncc2c(=O)oc3ccc(C)cc3c21,inactive,–
Cc1cccc(N2CCN(C(=O)c3ccc4c(c3)N(Cc3cccc(Cl)c3)C(=O)c3ccccc3S4(=O)=O)CC2)c1C,–,inactive: 3.21%
CCOc1ccccc1Nc1sc(C(=O)c2ccc(Cl)cc2)c(N)c1S(=O)(=O)c1ccccc1,inactive,–
O=C(CSc1ncc2c(n1)-c1ccccc1N(Cc1ccc(Cl)cc1)S2(=O)=O)c1ccccc1,–,inactive: 2.96%
O=C(O)CCn1c2c(c3ccccc31)C[C@H](NS(=O)(=O)c1ccc(F)cc1)CC2,–,inactive: 11.8%
CCOc1ccc(CNCc2c(C(=O)O)n(Cc3ccccc3C)c3cc(OC)ccc23)cc1OC,–,inactive: -8.2%
CC(CNC(=O)C1CCN(C(=O)c2cc3sccc3n2C)CC1)c1ccccc1 (stereo not drawn),–,inactive: -14.5%
COc1ccccc1NC(=O)Cn1ccn(-c2cc(C)cc(C)c2)c(=O)c1=O,–,inactive: -4.63%
CCC(C(=O)NC1CCCCC1)n1c(SCc2cccc(F)c2)nc2ccncc21 (stereo not drawn),–,inactive: -5.64%
Cc1ccc(S(=O)(=O)C(CNS(=O)(=O)c2ccc(F)c(C(F)(F)F)c2)c2ccco2)cc1 (stereo not drawn),–,inactive: 4.65%
COc1ccccc1CNC(=O)CCc1c(C)nn(-c2ccc(N3CCCCC3)nn2)c1C,–,inactive: -3.7%
Cn1nc(C(=O)NCc2ccccc2)c2c1-c1ccccc1S(=O)(=O)C2,–,inactive: 0.204%
CCOc1cccc(NC(=O)C2CC(=O)N(C)C(=Nc3ccc(OC)cc3)S2)c1 (stereo not drawn),inactive,–
Cc1ccc(Cl)cc1N1CCN(C(=O)CCS(=O)(=O)c2ccc3c(c2)oc(=O)n3C)CC1,–,inactive: 5.03%
Cc1cccc(CN2CCN(C(c3ccccc3)c3ccc(Cl)cc3)CC2)c1 (stereo not drawn),–,inactive: -11.1%
Cc1ccc(Cl)cc1Nc1nn2c(=O)c3ccc(C(=O)NC(C)c4ccccc4)cc3nc2s1 (stereo not drawn),–,inactive: -39.7%
O=c1c2sc3ccccc3c2n(Cc2ccc(F)cc2Cl)c(=O)n1Cc1ccccc1,–,inactive: 8.13%
CN(C(=O)CSc1nc2ccccc2n1Cc1ccccc1C#N)c1ccccc1,–,inactive: -0.472%
CCOc1ccc(-c2nc3cc(NC(=O)COc4cccc(C)c4)ccc3o2)cc1,–,inactive: -6.31%
